Assay results: PMC3068692
These are yes or no findings as the source states them, for the method shown. For part of these data: In cells and extracts the contact can be indirect. Some results given as binding are weak or reduced against the parent protein; the word gives no strength. For part of these data: Sequences can lack the tags named with a protein.

B1: PspC_(40–119) fused to a Cya fragment at its N-terminus (domain or fragment, UniProt P0AFN2 40-119)
chain: LVVLSIFFGLALFTLVAYIILSFALDPMPDNMAFGEQLPSSSELLDEVDRELAASETRLREMERYVTSDTFTLRSRFRQL
B2: PspC^G48A, T18 fusion (protein, UniProt P0AFN2 1-119)
chain: MAGINLNKKLWRIPQQGMVRGVCAGIANYFDVPVKLVRILVVLSIFFALALFTLVAYIILSFALDPMPDNMAFGEQLPSSSELLDEVDRELAASETRLREMERYVTSDTFTLRSRFRQL
B3: PspC^G74A, T18 fusion (protein, UniProt P0AFN2 1-119)
chain: MAGINLNKKLWRIPQQGMVRGVCAGIANYFDVPVKLVRILVVLSIFFGLALFTLVAYIILSFALDPMPDNMAFAEQLPSSSELLDEVDRELAASETRLREMERYVTSDTFTLRSRFRQL
B4: ArcB, T18 fusion (protein, UniProt P0AEC3 1-778)
chain: MKQIRLLAQYYVDLMMKLGLVRFSMLLALALVVLAIVVQMAVTMVLHGQVESIDVIRSIFFGLLITPWAVYFLSVVVEQLEESRQRLSRLVQKLEEMRERDLSLNVQLKDNIAQLNQEIAVREKAEAELQETFGQLKIEIKEREETQIQLEQQSSFLRSFLDASPDLVFYRNEDKEFSGCNRAMELLTGKSEKQLVHLKPADVYSPEAAAKVIETDEKVFRHNVSLTYEQWLDYPDGRKACFEIRKVPYYDRVGKRHGLMGFGRDITERKRYQDALERASRDKTTFISTISHELRTPLNGIVGLSRILLDTELTAEQEKYLKTIHVSAVTLGNIFNDIIDMDKMERRKVQLDNQPVDFTSFLADLENLSALQAQQKGLRFNLEPTLPLPHQVITDGTRLRQILWNLISNAVKFTQQGQVTVRVRYDEGDMLHFEVEDSGIGIPQDELDKIFAMYYQVKDSHGGKPATGTGIGLAVSRRLAKNMGGDITVTSEQGKGSTFTLTIHAPSVAEEVDDAFDEDDMPLPALNVLLVEDIELNVIVARSVLEKLGNSVDVAMTGKAALEMFKPGEYDLVLLDIQLPDMTGLDISRELTKRYPREDLPPLVALTANVLKDKQEYLNAGMDDVLSKPLSVPALTAMIKKFWDTQDDEESTVTTEENSKSEALLDIPMLEQYLELVGPKLITDGLAVFEKMMPGYVSVLESNLTAQDKKGIVEEGHKIKGAAGSVGLRHLQQLGQQIQSPDLPAWEDNVGEWIEEMKEEWRHDVEVLKAWVAKATKK
B5: PspC_(40–119) fused to T18 at its C-terminus (domain or fragment, UniProt P0AFN2 40-119)
chain: LVVLSIFFGLALFTLVAYIILSFALDPMPDNMAFGEQLPSSSELLDEVDRELAASETRLREMERYVTSDTFTLRSRFRQL
B6: PspB fused to a Cya fragment at its C-terminus (PspB–T25 or PspB–T18) (protein, UniProt P0AFM9 1-74)
chain: MSALFLAIPLTIFVLFVLPIWLWLHYSNRSGRSELSQSEQQRLAQLADEAKRMRERIQALESILDAEHPNWRDR
B7: PspG fused to a Cya fragment at its C-terminus (PspG–T25 or PspG–T18) (protein, UniProt P32696 1-80)
chain: MLELLFVIGFFVMLMVTGVSLLGIIAALVVATAIMFLGGMLALMIKLLPWLLLAIAVVWVIKAIKAPKVPKYQRYDRWRY
B8: WT PspB (no tag named) (protein, UniProt P0AFM9 1-74)
chain: MSALFLAIPLTIFVLFVLPIWLWLHYSNRSGRSELSQSEQQRLAQLADEAKRMRERIQALESILDAEHPNWRDR
B9: PspG of the E. coli cells (protein, UniProt P32696 1-80)
chain: MLELLFVIGFFVMLMVTGVSLLGIIAALVVATAIMFLGGMLALMIKLLPWLLLAIAVVWVIKAIKAPKVPKYQRYDRWRY
B10: PspC fused to a Cya fragment (T25–PspC or T18–PspC) (protein, UniProt P0AFN2 1-119)
chain: MAGINLNKKLWRIPQQGMVRGVCAGIANYFDVPVKLVRILVVLSIFFGLALFTLVAYIILSFALDPMPDNMAFGEQLPSSSELLDEVDRELAASETRLREMERYVTSDTFTLRSRFRQL
B11: PspC_(1–68) fused to a Cya fragment at its N-terminus (domain or fragment, UniProt P0AFN2 1-68)
chain: MAGINLNKKLWRIPQQGMVRGVCAGIANYFDVPVKLVRILVVLSIFFGLALFTLVAYIILSFALDPMP
B12: PspC_(69–119) fused to a Cya fragment at its N-terminus (domain or fragment, UniProt P0AFN2 69-119)
chain: DNMAFGEQLPSSSELLDEVDRELAASETRLREMERYVTSDTFTLRSRFRQL
B13: PspC expressed from the chromosome, P0AFN2 1-119 (protein)
chain: MAGINLNKKLWRIPQQGMVRGVCAGIANYFDVPVKLVRILVVLSIFFGLALFTLVAYIILSFALDPMPDNMAFGEQLPSSSELLDEVDRELAASETRLREMERYVTSDTFTLRSRFRQL
B14: PspC fused to a Cya fragment (T25–PspC or T18–PspC), P0AFN2 1-119 (protein)
chain: MAGINLNKKLWRIPQQGMVRGVCAGIANYFDVPVKLVRILVVLSIFFGLALFTLVAYIILSFALDPMPDNMAFGEQLPSSSELLDEVDRELAASETRLREMERYVTSDTFTLRSRFRQL

How the values were obtained:
[1] = target: T1, PspB fused to a Cya fragment at its C-terminus (PspB–T25 or PspB–T18) (E. coli) (UniProt P0AFM9); assay: two-hybrid; Cya-based bacterial two-hybrid (BACTH) in E. coli BTH101, LB at 30 °C, 0.5 mM IPTG for 1 h, β-galactosidase in liquid culture; threefold above vector alone scored positive; binder written as the T18 fusion, target as the T25 fusion
T1 sequence: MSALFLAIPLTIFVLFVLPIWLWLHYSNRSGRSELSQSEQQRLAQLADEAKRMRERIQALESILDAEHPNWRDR

[2] = target: T2, PspC fused to a Cya fragment (T25–PspC or T18–PspC) (E. coli) (UniProt P0AFN2); assay: as above
T2 sequence: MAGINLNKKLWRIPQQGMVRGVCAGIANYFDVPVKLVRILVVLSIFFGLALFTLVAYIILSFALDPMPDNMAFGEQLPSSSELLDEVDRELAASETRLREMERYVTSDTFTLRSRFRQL

[3] = target: T3, PspC_(1–68) fused to a Cya fragment at its N-terminus (E. coli) (UniProt P0AFN2); assay: as above
T3 sequence: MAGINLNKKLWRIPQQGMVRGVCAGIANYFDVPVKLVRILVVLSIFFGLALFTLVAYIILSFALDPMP

[4] = target: T4, PspC_(40–119) fused to a Cya fragment at its N-terminus (E. coli) (UniProt P0AFN2); assay: as above
T4 sequence: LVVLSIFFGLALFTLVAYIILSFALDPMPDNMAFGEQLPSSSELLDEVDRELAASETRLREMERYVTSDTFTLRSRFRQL

[5] = target: T5, PspG fused to a Cya fragment at its C-terminus (PspG–T25 or PspG–T18) (E. coli) (UniProt P32696); assay: as above
T5 sequence: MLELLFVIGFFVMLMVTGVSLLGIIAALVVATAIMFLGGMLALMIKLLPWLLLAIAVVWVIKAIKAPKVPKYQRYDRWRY

[6] = target: T6, PspC_(69–119) fused to a Cya fragment at its N-terminus (E. coli) (UniProt P0AFN2); assay: as above
T6 sequence: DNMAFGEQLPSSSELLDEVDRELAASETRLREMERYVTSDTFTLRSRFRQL

[7] = target: T7, PspC_(6His) (His-tagged PspC) (E. coli) (UniProt P0AFN2); assay: pull-down; PspC_(6His) co-expressed with PspB in E. coli Top10 (also Top10ΔpspA), lysate on a Ni-charged HiTrap metal-chelating column, buffer A (50 mM sodium phosphate pH 7, 300 mM NaCl, 5 % glycerol), eluted with 1 M imidazole; peak fractions blotted with anti-Psp antibodies; control with non-tagged PspC
T7 sequence: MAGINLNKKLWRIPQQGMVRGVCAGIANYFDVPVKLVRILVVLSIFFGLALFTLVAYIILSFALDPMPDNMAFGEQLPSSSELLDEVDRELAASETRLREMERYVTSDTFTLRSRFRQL

[8] = target: T8, PspC expressed from the chromosome (E. coli (endogenous in MG1655)), P0AFN2; assay: SDS-PAGE and Western blot for an SDS-PAGE-stable complex; whole cells of MG1655 or MG1655ΔpspA with or without pIV, anti-PspC blot; intensity of the slower-migrating band compared with that of monomeric PspC; settings: remark: other sources report otherwise
T8 chain: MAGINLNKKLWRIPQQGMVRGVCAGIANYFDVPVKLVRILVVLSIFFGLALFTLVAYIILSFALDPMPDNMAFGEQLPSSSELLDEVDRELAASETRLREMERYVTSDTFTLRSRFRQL

[9] = target: T9, PspC fused to a Cya fragment (T25–PspC or T18–PspC) (E. coli), P0AFN2; assay: two-hybrid; Cya-based bacterial two-hybrid (BACTH) in E. coli BTH101, LB at 30 °C, 0.5 mM IPTG for 1 h, β-galactosidase in liquid culture; threefold above vector alone scored positive; binder written as the T18 fusion, target as the T25 fusion; settings: remark: other sources report otherwise
T9 chain: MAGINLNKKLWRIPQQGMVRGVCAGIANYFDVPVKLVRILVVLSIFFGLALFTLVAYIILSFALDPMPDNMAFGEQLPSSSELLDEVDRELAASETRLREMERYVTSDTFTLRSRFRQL

Binder	binding [1]	binding [2]	binding [5]	further results
B1	binds	no binding	–	binding [3]: no binding; binding [4]: no binding
B2	binds	–	no binding	–
B3	binds	–	binds	–
B4	binds weakly	binds weakly	–	–
B5	binds	–	–	–
B6	binds	binds	no binding	binding [3]: binds; binding [4]: binds; binding [6]: no binding
B7	no binding	binds	binds	–
B8	–	–	–	binding [7]: binds
B9	–	–	–	binding [7]: binds
B10	binds	–	binds	binding [3]: no binding; binding [4]: no binding
B11	binds	no binding	–	binding [3]: no binding; binding [4]: no binding
B12	no binding	–	–	–
B13	–	–	–	binding [8]: no binding
B14	–	–	–	binding [9]: no binding
